# Whole data set: some 33,000 sequences, median “E-score (-0.5 to 0.5)” near -0.01, cut for the highest 2% near 0.26. This is one part of the list.
# Target: Ste12 (UniProt P13574)
# Assay: PBM E-score (8-mer binding enrichment) (E-score (-0.5 to 0.5)); higher = stronger / more preferred TF binding; most listed sequences are background and not binding sites
# Details: protein concentration: 200 nM; construct: GST-DNA-binding domain
# Outline: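 Bound GST-tagged yeast transcription factors, applied at about 100-200 nM to double-stranded universal all-10-mer Agilent arrays, were detected with fluorescent anti-GST. Scans were normalised with masliner. A modified Wilcoxon-Mann-Whitney statistic, the E-score, was assigned to each ungapped eight-base word pooled with its reverse complement by the Universal PBM Analysis Suite.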
row,Sequence,PBM E-score
1,CTTCCCCA,0.0584
2,ATTGCCGA,0.0896
3,AGCCTGCA,0.0896
4,CTATATAG,-0.0246
5,TACTGAGA,-0.0624
6,ACTTCTTA,0.00388
7,AAACGGGA,0.245
8,AAAAATCG,0.0878
9,AAGCTCCT,-0.294
10,AAGTTCCG,-0.0525
11,GTGCAGGA,0.0423
12,CTATGATA,-0.0247
13,CAGCTCTA,-0.241
14,GCCCCGAA,0.118
15,CATGGGGG,-0.251
16,TGCCGGCA,0.202
17,AAAGCAGG,-0.0312
18,GCATCCCA,0.017
19,GGTTGGTA,-0.0098
20,CGCTACCG,-0.0911
21,AGCATAGC,-0.283
22,GGTCTCTA,-0.151
23,GGAGTAAC,0.0279
24,AGCGATCA,-0.138
25,CAGCGCGA,-0.113

row,Sequence,PBM E-score
1,AGCGGGGA,0.111
2,CGGGTTTA,0.304
3,ACACCGCT,-0.0123
4,CATTCTAG,-0.0323
5,ATCTCGAG,0.0611
6,GGGCTAAA,0.0353
7,CACCTACC,-0.116
8,CAGAAAAA,0.18
9,CCAACAGA,-0.0441
10,GCTAGGAA,0.035
11,CCTACGCG,0.0195
12,AGTGCTCG,-0.0472
13,GAGCAATC,0.00029
14,GGAGGCCA,-0.191
15,ACCTTCTA,-0.0603
16,GCCCCATA,0.0133
17,AGAGGCAA,-0.177
18,CAACGGTC,-0.13
19,AGAGGCGA,-0.195
20,ACACGTAC,-0.104
21,AATTTAAA,0.269
22,GCTTGGAA,-0.0415
23,AGGTAATG,0.0349
24,AAATTTCT,0.121
25,CCTATGCA,-0.155

row,Sequence,PBM E-score
1,CACAGAGG,-0.251
2,GGACCTAC,-0.126
3,ACACTTCG,0.109
4,CCTGGCCG,-0.108
5,CTCGTGAC,0.0961
6,ACGACCAA,-0.106
7,ATCTGCCG,-0.0477
8,CGGGGTAA,0.215
9,CATTCGGA,0.107
10,CCATCCAA,-0.0209
11,ACAATTTC,0.0778
12,CTGGTAGA,0.00542
13,CGTGCTAC,-0.178
14,ACCTGGTC,-0.0497
15,CGTTGTTC,-0.0423
16,CAAGTAAA,0.164
17,TCTCGCCA,-0.0602
18,CCACACGC,0.0917
19,GACCACGC,-0.0829
20,ACAGGCCT,-0.177
21,CGTAACAC,0.0577
22,CGTTGAAC,-0.115
23,GGGTGGTA,0.141
24,AGCGATAA,0.00154
25,ACAGAGGT,0.027

row,Sequence,PBM E-score
1,CTTAGAGC,-0.0634
2,AGCTTCCA,0.00321
3,ACCCCCAG,-0.125
4,GTGAATTA,0.231
5,GACCAGTA,-0.0322
6,CCAACTTC,0.0693
7,ATATGGTG,0.102
8,GCTTCCGA,-0.0314
9,CTCTGTAA,0.0369
10,GAGAGTGA,-0.0655
11,AAATGTCA,0.0613
12,ACCCGTCT,-0.0963
13,ACGGAGAG,-0.144
14,TCCTCACA,0.036
15,TACTAAAA,0.234
16,ACACTCTA,-0.107
17,ATCGTACA,0.0176
18,AGGTCTCA,0.0909
19,CATCCTAG,-0.0741
20,AGGAAGAG,-0.0797
21,CGGAATAC,0.134
22,ATGCGCAC,0.0144
23,CTTCGACA,0.0168
24,AGAACGAT,0.0309
25,ACTAGTAG,-0.00771

row,Sequence,PBM E-score
1,GCGTGTCA,0.0816
2,GCCCGGGC,0.0454
3,ACTCCAGA,-0.011
4,CTTGAAAC,0.479
5,CACTCTTA,-0.0739
6,GACACCTC,-0.0961
7,CCAGCCCA,-0.111
8,CCTGAGGC,-0.23
9,AAAGCGTG,0.0993
10,AGGGCGAA,-0.0682
11,CAAACGAC,0.128
12,CATCCATG,-0.0612
13,GACCGGAA,-0.0322
14,GATCGCCA,0.0185
15,TGTCGGAA,-0.0406
16,AGCCCGCG,0.0712
17,ATTTTTTA,0.331
18,AATGTATG,0.174
19,GGGAAACA,0.132
20,CCGAACGA,-0.0219
21,CGCGCGCC,0.157
22,CAAAACGC,0.229
23,CAATCACC,-0.0166
24,AAGATGAC,-0.121
25,AGATTGAG,0.0985

row,Sequence,PBM E-score
1,GGAAGTGA,0.0285
2,CAGTATAG,0.0851
3,AAAGATGA,0.0383
4,CACACGGC,-0.117
5,ACTAAATC,0.135
6,CTGTTAGC,0.0275
7,GCGGGAGA,-0.122
8,GCAATTGA,0.0532
9,TCATCCAA,0.0613
10,AATGAACT,0.138
11,GCCTGCGA,-0.0785
12,CGTGTTTA,0.0319
13,CGCGGACA,-0.0451
14,CGCTTTAC,-0.237
15,AACGGGGA,0.0804
16,GCCAAGGA,-0.298
17,AATTAGGA,0.145
18,AATTTTTA,0.283
19,AACACCCG,0.151
20,ACACCGCA,0.0856
21,CCCGCAAG,-0.227
22,GAGTCAAC,-0.0842
23,AAGGATAT,0.167
24,TGAGTGCA,-0.0696
25,AAGAAGGA,0.0908

row,Sequence,PBM E-score
1,GACACCGC,-0.13
2,CCGCAGAC,0.0939
3,CGTTTTTC,0.157
4,ATTAAGGG,0.0581
5,CCAAGGCG,-0.0959
6,ATAAGTAC,0.111
7,ACAGAGGC,-0.328
8,AAAAAAGG,0.244
9,CTCTAGGA,-0.286
10,CTGAAATC,-0.0192
11,ACAGTGTC,0.0333
12,TGTCAAAA,0.163
13,AATTGTAT,0.0116
14,ATTTTGGA,0.148
15,CACTTCCC,-0.128
16,ACACTCAG,-0.141
17,AGGAAATA,0.138
18,CTTCACCA,-0.13
19,CCCACGTA,-0.0821
20,AGTCATGC,-0.0295
21,CCGTACGA,-0.0159
22,CCGGCCGC,-0.139
